# Laboratory results reported in the supplement of paper PMC10037445.
# Over roughly 2,900 compounds, “IRF Lucia reporter activity, fold change vs agonist alone” has its median near 0.9; the highest 2% begin near 2.8. Some of the results follow.
# How the values were obtained:
# RAW-Dual [1] = experiment: IRF Lucia reporter activity, fold change vs agonist alone; higher = enhanced IRF activity; conditions: library stock concentration (final ~1000-fold dilution): 10 mM, agonist: MPLA (TLR4) […]
# How it was run: (§1)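 Reporter activity is given as fold change relative to agonist-alone wells. To measure it, 50 nL of library stock was pin-tooled onto RAW-Dual macrophages (50,000 cells/well, DMEM, 384-well plates), a PRR agonist followed 1 h later, and cells stayed at 37 °C, 5% CO2. Twenty hours on, supernatant was assayed for IRF (QuantiLuc luminescence) and NF-κB (QuantiBlue, 620 nm absorbance), and wells under 70% of agonist-control IncuCyte confluency in both mask sets were marked cytotoxic.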
# RAW-Dual [2] = experiment: IRF Lucia reporter activity, fold change vs agonist alone; cytotoxicity flag (confluency mask): not cytotoxic; higher = enhanced IRF activity
# How it was run: as §1
# RAW-Dual [3] = experiment: IRF Lucia reporter activity, fold change vs agonist alone; cytotoxicity flag (confluency mask): cytotoxic (confluency <70% of control); higher = enhanced IRF activity
# How it was run: as §1
# [4] = cytotoxicity flag (confluency mask): not cytotoxic
# [5] = agonist: 3'3'-cGAMP (STING) 10 ug/mL
# [6] = cytotoxicity flag (confluency mask): cytotoxic (confluency <70% of control)
smiles,measurement,setting,value
O=C(NNc1nc2cc(F)ccc2n2cccc12)c1cnccn1,IRF Lucia reporter activity,RAW-Dual [1]; [4],1.07
O=C(NNc1nc2cc(F)ccc2n2cccc12)c1cnccn1 (library stock concentration (final ~1000-fold dilution): 10 mM),IRF Lucia reporter activity,RAW-Dual [2]; [5],1.04
same,IRF Lucia reporter activity,RAW-Dual [2]; agonist: LPS (TLR4) 0.1 ug/mL,1.02
CCCCCCCCCCCCCCCc1cccc(O)c1C(=O)O (library stock concentration (final ~1000-fold dilution): 10 mM),IRF Lucia reporter activity,RAW-Dual [2]; [5],0.662
same,IRF Lucia reporter activity,RAW-Dual [2]; agonist: LPS (TLR4) 0.1 ug/mL,0.982
CCCCCCCCCCCCCCCc1cccc(O)c1C(=O)O,IRF Lucia reporter activity,RAW-Dual [1]; [4],0.933
Nc1ncn(C2OC(CO)C(O)C2O)c(=O)n1 (configuration not stated) (library stock concentration (final ~1000-fold dilution): 10 mM),IRF Lucia reporter activity,RAW-Dual [2]; [5],0.496
same,IRF Lucia reporter activity,RAW-Dual [2]; agonist: LPS (TLR4) 0.1 ug/mL,0.927
Nc1ncn(C2OC(CO)C(O)C2O)c(=O)n1 (configuration not stated),IRF Lucia reporter activity,RAW-Dual [1]; [4],0.686
COC(=O)/C=C/C(=O)OC (library stock concentration (final ~1000-fold dilution): 10 mM),IRF Lucia reporter activity,RAW-Dual [2]; [5],0.619
same,IRF Lucia reporter activity,RAW-Dual [2]; agonist: LPS (TLR4) 0.1 ug/mL,1.08
CCN1C(=O)C=CC1=O,IRF Lucia reporter activity,RAW-Dual [1]; [6],0.16
CCN1C(=O)C=CC1=O (library stock concentration (final ~1000-fold dilution): 10 mM),IRF Lucia reporter activity,RAW-Dual [3]; [5],0.565
same,IRF Lucia reporter activity,RAW-Dual [3]; agonist: LPS (TLR4) 0.1 ug/mL,0.0147
O=C(NC(Cc1cc(=O)[nH]c2ccccc12)C(=O)O)c1ccc(Cl)cc1 (configuration not stated),IRF Lucia reporter activity,RAW-Dual [1]; [4],1.04
O=C(NC(Cc1cc(=O)[nH]c2ccccc12)C(=O)O)c1ccc(Cl)cc1 (configuration not stated) (library stock concentration (final ~1000-fold dilution): 10 mM),IRF Lucia reporter activity,RAW-Dual [2]; [5],1.11
same,IRF Lucia reporter activity,RAW-Dual [2]; agonist: LPS (TLR4) 0.1 ug/mL,0.942
CC1(C)CC[C@]2(NC(=O)C(C)(F)F)CC[C@]3(C)[C@H](C(=O)C=C4[C@@]5(C)C=C(C#N)C(=O)C(C)(C)[C@@H]5CC[C@]43C)[C@@H]2C1 (library stock concentration (final ~1000-fold dilution): 10 mM),IRF Lucia reporter activity,RAW-Dual [3]; [5],0.0143
same,IRF Lucia reporter activity,RAW-Dual [3]; agonist: LPS (TLR4) 0.1 ug/mL,0.0184
COc1ccc(-c2cc3nccn3c(Nc3ncccc3C(N)=O)n2)cc1OC.Cl.Cl,IRF Lucia reporter activity,RAW-Dual [1]; [4],0.124
COc1ccc(-c2cc3nccn3c(Nc3ncccc3C(N)=O)n2)cc1OC.Cl.Cl (library stock concentration (final ~1000-fold dilution): 10 mM),IRF Lucia reporter activity,RAW-Dual [2]; [5],0.153
same,IRF Lucia reporter activity,RAW-Dual [2]; agonist: LPS (TLR4) 0.1 ug/mL,0.134
CCOC(=O)c1ccc(NC2CCCCC2)c(N)c1,IRF Lucia reporter activity,RAW-Dual [1]; [4],1.83
CCOC(=O)c1ccc(NC2CCCCC2)c(N)c1 (library stock concentration (final ~1000-fold dilution): 10 mM),IRF Lucia reporter activity,RAW-Dual [2]; [5],1.04
same,IRF Lucia reporter activity,RAW-Dual [2]; agonist: LPS (TLR4) 0.1 ug/mL,4.71
CCOC(=O)C1=C(C)NC(C)=C(C(=O)OC)C1c1cccc(Cl)c1Cl (configuration not stated),IRF Lucia reporter activity,RAW-Dual [1]; [4],1.08
CCOC(=O)C1=C(C)NC(C)=C(C(=O)OC)C1c1cccc(Cl)c1Cl (configuration not stated) (library stock concentration (final ~1000-fold dilution): 10 mM),IRF Lucia reporter activity,RAW-Dual [2]; [5],1.31
same,IRF Lucia reporter activity,RAW-Dual [2]; agonist: LPS (TLR4) 0.1 ug/mL,1.17
CN1CCN(Cc2ccc(-c3cnc4[nH]cc(-c5ccc6[nH]ccc6c5)c4c3)cc2)CC1,IRF Lucia reporter activity,RAW-Dual [1]; [4],0.0141
CN1CCN(Cc2ccc(-c3cnc4[nH]cc(-c5ccc6[nH]ccc6c5)c4c3)cc2)CC1 (library stock concentration (final ~1000-fold dilution): 10 mM),IRF Lucia reporter activity,RAW-Dual [2]; [5],0.00761
same,IRF Lucia reporter activity,RAW-Dual [2]; agonist: LPS (TLR4) 0.1 ug/mL,0.0167
Cc1cc(O)c(-c2ccc(C(C)CN(C)C)cc2)c2c1[nH]c(=O)c1sccc12.Cl.Cl (configuration not stated) (library stock concentration (final ~1000-fold dilution): 10 mM),IRF Lucia reporter activity,RAW-Dual [3]; [5],0.0135
same,IRF Lucia reporter activity,RAW-Dual [3]; agonist: LPS (TLR4) 0.1 ug/mL,0.163
CC(OC1OCCN(Cc2n[nH]c(=O)[nH]2)C1c1ccc(F)cc1)c1cc(C(F)(F)F)cc(C(F)(F)F)c1 (configuration not stated) (library stock concentration (final ~1000-fold dilution): 10 mM),IRF Lucia reporter activity,RAW-Dual [2]; [5],1.12
same,IRF Lucia reporter activity,RAW-Dual [2]; agonist: LPS (TLR4) 0.1 ug/mL,0.857
CC(OC1OCCN(Cc2n[nH]c(=O)[nH]2)C1c1ccc(F)cc1)c1cc(C(F)(F)F)cc(C(F)(F)F)c1 (configuration not stated),IRF Lucia reporter activity,RAW-Dual [1]; [4],0.817
CCCCCCCCOc1ccccc1C(=O)Nc1ccc(C(=O)OCC[N+](C)(CC)CC)cc1 (library stock concentration (final ~1000-fold dilution): 10 mM),IRF Lucia reporter activity,RAW-Dual [3]; [5],0.662
same,IRF Lucia reporter activity,RAW-Dual [3]; agonist: LPS (TLR4) 0.1 ug/mL,0.688
CCCCCCCCOc1ccccc1C(=O)Nc1ccc(C(=O)OCC[N+](C)(CC)CC)cc1,IRF Lucia reporter activity,RAW-Dual [1]; [6],1.43
CC(C)(C)NC(=O)NC(C(=O)N1CC2C(C1C(=O)NC(CC1CCC1)C(=O)C(N)=O)C2(C)C)C(C)(C)C (configuration not stated) (library stock concentration (final ~1000-fold dilution): 10 mM),IRF Lucia reporter activity,RAW-Dual [2]; [5],0.998
same,IRF Lucia reporter activity,RAW-Dual [2]; agonist: LPS (TLR4) 0.1 ug/mL,1.05
CC(C)(C)NC(=O)NC(C(=O)N1CC2C(C1C(=O)NC(CC1CCC1)C(=O)C(N)=O)C2(C)C)C(C)(C)C (configuration not stated),IRF Lucia reporter activity,RAW-Dual [1]; [4],1.03
CC1=NN(c2ccc(C(=O)O)cc2)C(=O)/C1=C\c1ccc(-c2cc(C)c(C)cc2[N+](=O)[O-])o1 (library stock concentration (final ~1000-fold dilution): 10 mM),IRF Lucia reporter activity,RAW-Dual [2]; [5],1.01
same,IRF Lucia reporter activity,RAW-Dual [2]; agonist: LPS (TLR4) 0.1 ug/mL,0.318
CC1=NN(c2ccc(C(=O)O)cc2)C(=O)/C1=C\c1ccc(-c2cc(C)c(C)cc2[N+](=O)[O-])o1,IRF Lucia reporter activity,RAW-Dual [1]; [4],0.846
c1ccc(C(c2ccccc2)N2CCN(Cc3ccc4c(c3)OCO4)CC2)cc1 (library stock concentration (final ~1000-fold dilution): 10 mM),IRF Lucia reporter activity,RAW-Dual [2]; [5],0.791
same,IRF Lucia reporter activity,RAW-Dual [2]; agonist: LPS (TLR4) 0.1 ug/mL,0.74
